# Among all 55,000 compounds or so, about 340 (0.62%) were called active. The inconclusive results got no clear call from the source; some entries with a clear call stand among them for comparison. Calls come from the whole dose curve; as a rule, active = well fitted cell-killing curve with a large enough effect; inconclusive = small, poorly fitted or top-dose-only effect; inactive = no such curve, though single readings can be large or run the other way. Potencies of inconclusive entries are doubtful fits and often do not repeat.
# Assay: qHTS Screen for Compounds that Selectively Target Cancer Cells with p53 Mutations: Cytotoxicity of p53 Null Cells at the Permissive Temperature; note: nearly all actives have a fitted effect of over 55% in size
# Conditions: H1299-neo p53 null cells, ATP luminescence, 24 h, 32C; series mostly up to 46.1 µM
# How it was run: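 H1299-neo (p53 null) cells, 600/well, treated 24 h at 32C with compound up to 46 uM; ATPlite luminescence viability, normalized to DMSO and 100 uM tamoxifen; AC50 by Hill fit.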
# Potency is the fitted concentration of half-maximal effect; tags give direction and shape of the fitted curve.
row,SMILES,Potency
1,COc1cc2c(=O)c(S(=O)(=O)c3ccc(C(C)C)cc3)cn(Cc3ccccc3C)c2cc1OC,"inconclusive: 3.16 µM [cytotoxic, partial curve]"
2,CCOc1cc(C(Nc2cc(C)ccn2)c2ccc3cccnc3c2O)ccc1OC (stereo not given),"inconclusive: 3.16 µM [cytotoxic, full curve]"
3,Cc1cc(Nc2cccc(Br)c2)n2c(nc3ccccc32)c1C#N,inactive
4,O=c1oc2ccccc2n1CCCOc1ccccc1Cl,"inconclusive: 12.6 µM [cytotoxic, single point]"
5,Cc1c(C(=O)NCc2ccoc2)oc2ccc3c(c12)C(=O)CC(C)(C)O3,"inconclusive: 12.6 µM [cytotoxic, partial curve]"
6,COc1cc(CNCCSc2nnnn2C)ccc1OCc1ccc(F)cc1,"inconclusive: 25.1 µM [cytotoxic, single point]"
7,Cc1cccc(C(=O)Nc2nnc(S(=O)(=O)N3CCC(C)CC3)s2)c1,inactive
8,Cc1cc(C)cc(OC(=O)c2cc(-c3ccc4c(c3)OCCO4)on2)c1,"inconclusive: 31.6 µM [cytotoxic, single point]"
9,COc1ccc(NC(=O)Nc2nnc(SCC(=O)Nc3cccc(C)c3C)s2)cc1,"inconclusive: 0.398 µM [cytotoxic, full curve, poor fit]"
10,Cc1noc(Cn2c(=O)c3cc4c(cc3n(CC(=O)Nc3ccc(C(C)C)cc3)c2=O)OCO4)n1,inactive
11,CCc1ccccc1N1CC(c2nc3ccccc3n2CCCCOc2ccccc2OC)CC1=O (stereo not given),"inconclusive: 31.6 µM [cytotoxic, single point]"
12,CCOc1ccccc1CNC(=O)C1CCN(c2nnc(C)c3c(C)n(-c4ccc(C)cc4)nc23)CC1,"inconclusive: 31.6 µM [cytotoxic, single point]"
13,CCC1CCCCN1C(=O)CSc1n[nH]c(-c2ccccc2)n1 (stereo not given),"inconclusive: 10 µM [cytotoxic, partial curve]"
14,Cc1c(C2=CCN(S(=O)(=O)c3ccc(Cl)cc3)CC2)c2ccccc2n1CC(=O)N1CCCC1,"inconclusive: 35.5 µM [cytotoxic, single point]"
15,CC(C)COc1ccc(C(=O)Nc2cc3nn(-c4ccccc4)nc3cc2Cl)cc1,inactive
16,O=C(c1ccc2c(c1)OCCO2)N(Cc1cccnc1)c1nc2c(Cl)cccc2s1,inactive
17,CC(C)c1ccc(NC(=O)c2cc3sc(Cl)cc3n2C)cc1,"inconclusive: 12.6 µM [cytotoxic, partial curve]"
18,CN(CCCNC(=O)c1cc2c(Cl)nc3ccccc3c2s1)Cc1ccccc1,"inconclusive: 35.5 µM [cytotoxic, single point]"
19,COc1ccc(-n2ncc3c(NC(C)(C)CO)ncnc32)cc1,active: 12.6 µM
20,O=C(NCc1ccco1)c1ccc(Cn2c(SCc3ccc(F)cc3)nc3cccnc32)cc1,"inconclusive: 12.6 µM [cytotoxic, partial curve]"
21,O=C1CC(c2nc3ccccc3n2CCCCOc2ccccc2)CN1c1ccccc1Cl (stereo not given),"inconclusive: 25.1 µM [cytotoxic, single point]"
22,O=C(COC(=O)C1(c2cccc(F)c2)CCCC1)NCc1ccc2c(c1)OCO2,"inconclusive: 22.4 µM [cytotoxic, single point]"

row,SMILES,Potency
1,Cc1ccc(Nc2nc(N)nc(CSc3nncn3C)n2)cc1,"inconclusive: 11.2 µM [cytotoxic, partial curve]"
2,COc1ccc(CNC(=O)c2cc3cc(C)ccc3n2C)cc1,"inconclusive: 1 µM [cytotoxic, full curve, poor fit]"
3,Cc1ccccc1-c1ncnn1-c1sc2c(c1C#N)CCCCC2,"inconclusive: 2.51 µM [cytotoxic, full curve, poor fit]"
4,O=c1c2sc(-c3ccccc3)cc2nc2n1CCC2,"inconclusive: 14.1 µM [cytotoxic, partial curve]"
5,CC(=O)Nc1ccc(S(=O)(=O)Nc2cccc(-c3ccc(N4CCC(C)CC4)nn3)c2)cc1,active: 3.98 µM
6,CCCS(=O)(=O)c1ncc(Cl)c(C(=O)N(Cc2ccccc2)Cc2ccco2)n1,active: 22.4 µM
7,Oc1cccc(C(Nc2ccccn2)c2ccc3cccnc3c2O)c1Cl (stereo not given),"inconclusive: 1.26 µM [cytotoxic, full curve]"
8,Fc1cccc(-c2nc(-c3ccncc3)no2)c1,"inconclusive: 0.01 µM [cytotoxic, full curve, poor fit]"
9,O=C(CSc1nc2c([nH]c3ccccc32)c(=O)n1-c1cccc(Cl)c1)N1CCCC1,"inconclusive: 6.31 µM [cytotoxic, single point]"
10,Cc1cc(-c2ccc(S(=O)(=O)Nc3cc(Cl)ccc3C)s2)on1,"inconclusive: 31.6 µM [cytotoxic, single point]"
11,CCCCCCc1cc2cc(-c3nnc(-c4cccc(Cl)c4)o3)c(=O)oc2cc1O,"inconclusive: 20 µM [cytotoxic, single point]"
12,CCOC(=O)c1cc2c(=O)n3ccccc3nc2n(CC2CCCO2)c1=NC(=O)c1cccc(C)c1 (stereo not given),"inconclusive: 6.31 µM [cytotoxic, partial curve]"
13,CSc1ccc(S(=O)(=O)N2CCCC2)cc1,inactive
14,Fc1cccc(CSc2ccc(-c3cccs3)nn2)c1,"inconclusive: 15.8 µM [cytotoxic, single point]"
15,Cc1cccc(NC(=O)C2CCCN2S(=O)(=O)c2ccc3c(c2)n(C)c(=O)c(=O)n3C)c1 (stereo not given),"inconclusive: 3.98 µM [cytotoxic, partial curve]"
16,COc1ccc(NC(=O)CCn2cnc3onc(-c4ccc(F)cc4)c3c2=O)cc1OC,inactive
17,CCCCCN1C(C(=O)c2ccccc2)=C(OC(=O)CC)c2ccccc2S1(=O)=O,"inconclusive: 10 µM [cytotoxic, partial curve]"
18,FC(F)(F)c1cccc(Nc2c3c(nc4ccc(Cl)cc24)CCC3)c1,"inconclusive: 35.5 µM [cytotoxic, single point]"
19,Cc1ccccc1OCC(=O)Nc1ccccc1OCc1cc(=O)n2ccccc2n1,"inconclusive: 12.6 µM [cytotoxic, partial curve]"
20,CCc1cccc(CC)c1NC(=O)CN(C)S(=O)(=O)c1ccc2c(c1)n(C)c(=O)c(=O)n2C,"inconclusive: 5.62 µM [cytotoxic, single point]"
21,CCOC(=O)c1c(C)oc2ncnc(Nc3cccc(C(F)(F)F)c3)c12,"inconclusive: 5.01 µM [cytotoxic, single point]"
22,Cc1cccc(-c2nc(SCc3cc(=O)c4c(C)cc(C)cc4[nH]3)n[nH]2)c1,"inconclusive: 31.6 µM [cytotoxic, single point]"

row,SMILES,Potency
1,Cc1nn(C(C)C(=O)NCc2ccc(OC(C)C)cc2)c(=O)c2c1sc1ccccc12 (stereo not given),"inconclusive: 0.0316 µM [cytotoxic, full curve, poor fit]"
2,Cc1ccc(NC(=O)Cn2c(=O)n(Cc3nc(-c4ccccc4)no3)c(=O)c3ccccc32)c(C)c1,inactive
3,CCn1c(=O)cc(SCC(=O)NCCc2cccc(C)c2)c2ccccc21,inactive
4,Cc1nc2ccc(S(=O)(=O)NC(C(=O)N3CCN(c4ccc(Cl)cc4)CC3)C(C)C)cc2s1 (stereo not given),"inconclusive: 35.5 µM [cytotoxic, single point]"
5,CCOc1ccc2oc(=O)cc(CN3CCN(Cc4ccc(F)cc4)CC3)c2c1,inactive
6,Cc1cc(C)cc(NC(=O)Cn2nnc(C(=O)NCc3ccccc3Cl)c2N)c1,inactive
7,CCc1ccc(S(=O)(=O)c2cnc3ccc(OC)cc3c2N2CCCC(C)C2)cc1 (stereo not given),"inconclusive: 11.2 µM [cytotoxic, partial curve, poor fit]"
8,COC(=O)c1oc2ccc(OC)cc2c1N,"inconclusive: 20 µM [cytotoxic, partial curve, poor fit]"
9,Cc1ccc(SCc2nc(N)nc(Nc3ccccc3C)n2)cc1C,"inconclusive: 17.8 µM [cytotoxic, partial curve, poor fit]"
10,CS(=O)(=O)c1oc(-c2ccc(F)cc2)nc1S(=O)(=O)c1ccc(Cl)cc1,"inconclusive: 31.6 µM [cytotoxic, single point]"
11,Cc1ccc(CNC(=O)c2cc3sc(Cl)cc3n2C)cc1,"inconclusive: 3.55 µM [cytotoxic, full curve, poor fit]"
12,Nc1nc2nc(-c3ccccc3)cc(=O)n2[nH]1,"inconclusive: 31.6 µM [cytotoxic, single point]"
13,CC(=O)c1ccc(NC(=O)CSc2nnc(NC(=O)NC3CCCCC3)s2)cc1,active: 6.31 µM
14,Cc1cc(C)c(NS(=O)(=O)c2ccc3c(c2)NC(=O)CCS3)c(C)c1,inactive
15,CCOc1ccc(OCC)c(NS(=O)(=O)c2ccc3c(c2)CCCN3C(C)=O)c1,"inconclusive: 3.98 µM [cytotoxic, single point]"
16,CC(C)COc1ccc(C(=O)Nc2onc3c2CCCC3)cc1,"inconclusive: 7.94 µM [cytotoxic, partial curve]"
17,CCc1ccccc1NS(=O)(=O)c1ccc2[nH]cc(C(=O)NC3CCCC3)c(=O)c2c1,inactive
18,CC1CCN(C(=O)CSc2nc(-c3ccc(C(C)C)cc3)no2)CC1,"inconclusive: 12.6 µM [cytotoxic, partial curve]"
19,Cc1ccc(C)c(NC(=O)CCc2nc(-c3ccc(C(C)(C)C)cc3)no2)c1,"inconclusive: 10 µM [cytotoxic, partial curve]"
20,CC(C)OCCCn1c(SCC(=O)Nc2ccc(F)cc2)nc2c(sc3ccccc32)c1=O,inactive
21,Fc1ccc(Nc2nc3nonc3nc2Nc2cccc(C(F)(F)F)c2)cc1,"inconclusive: 31.6 µM [cytotoxic, single point]"
